One assay concerns HSkMC (human skeletal muscle cells). As to the kind of experiment: cytotoxicity call (relative viability < 0.9). The note with it: 10 µM.
The next assay deals with HepG2. Briefly: cytotoxicity call (relative viability < 0.9). Particulars: 10 µM.
A further assay deals with S. aureus RN4220. Briefly: growth inhibition call (relative growth <= 0.2). Particulars: 50 µM.

Ten molecules from the antibiotic and cytotoxicity screens of Wong et al. (2023) can be followed below.

Each structure is given as a SMILES string. The list shows a part of the results.

`C[C@H](CO)N1C[C@H](C)[C@@H](CN(C)C(=O)Nc2ccc(F)cc2)OCc2ccccc2-c2c(n(C)c3ccccc23)C1=O`: the cytotoxicity call with HSkMC and with HepG2 was “inactive” in each case. Besides, the growth inhibition call with S. aureus RN4220 is “inactive”.

As to `CCOC(=O)c1cc2c(c(-c3cccc(Br)c3)n1)[C@@H](CCO[Si](C)(C)C(C)(C)C)N([S@](=O)C(C)(C)C)C2`, the cytotoxicity call with HSkMC and with HepG2 was “inactive” in each case. In the assay on S. aureus RN4220, the growth inhibition call was “inactive”.

As for `C[C@@H]1CN([C@H](C)CO)C(=O)Cc2cc(NC(=O)C3CC3)ccc2O[C@@H]1CN(C)S(=O)(=O)c1ccc(F)cc1`, the cytotoxicity call in the assay with HSkMC and with HepG2 was “inactive” each time. Besides, the growth inhibition call in the assay with S. aureus RN4220 was “inactive”.

On to `C[C@H]1CN([C@@H](C)CO)S(=O)(=O)c2ccc(C#Cc3ccncc3)cc2O[C@H]1CN(C)C(=O)C1CCOCC1`, for which the cytotoxicity call in the assay with HSkMC is “inactive”. Moreover, in the assay on HepG2, the cytotoxicity call is “active”. For the same molecule, in the assay with S. aureus RN4220, the growth inhibition call is “inactive”.

As for `C[C@H]1CCCCO[C@H](CN(C)C(=O)Nc2ccc3c(c2)OCO3)[C@@H](C)CN([C@@H](C)CO)C(=O)c2cc(NC(=O)C3CCCCC3)ccc2O1`, the cytotoxicity call in the assay with HSkMC and in the assay with HepG2 was “inactive” throughout. Moreover, the growth inhibition call with S. aureus RN4220 is “inactive”.

`CCc1ccccc1C(=O)N1CCC[C@@H](Cn2cc(C(C)(C)N)nn2)C1`: the cytotoxicity call in the assay with HSkMC and in the assay on HepG2 was “inactive” each time. The growth inhibition call with S. aureus RN4220 is “inactive”.

As to `CSC[C@@H](O)Cn1[nH]c(=O)ccc1=O`, the cytotoxicity call with HSkMC and in the assay with HepG2 was “inactive” each time. The growth inhibition call in the assay with S. aureus RN4220 is “inactive”.

In the case of `CCNC(=O)C[C@@H]1CC[C@H]2[C@@H](COC[C@@H](O)CN2C(=O)Nc2c(C)noc2C)O1`, the cytotoxicity call in the assay with HSkMC and with HepG2 was “inactive” in each case. In the assay with S. aureus RN4220, the growth inhibition call was “inactive”.

Take `CCOC(=O)[C@H](N)/C=C(\C)CP(=O)(O)O`: the cytotoxicity call in the assay with HSkMC and in the assay with HepG2 was “inactive” throughout. Moreover, the growth inhibition call in the assay with S. aureus RN4220 was “inactive”.

As for `Cc1ccc(S(=O)(=O)N(C)C[C@H]2OCCCC[C@H](C)Oc3ccc(NC(=O)Nc4ccc(C(F)(F)F)cc4)cc3C(=O)N([C@H](C)CO)C[C@@H]2C)cc1`, the cytotoxicity call in the assay with HSkMC and in the assay with HepG2 was “inactive” each time. Also, the growth inhibition call with S. aureus RN4220 was “inactive”.
